We go through 56 sequences from the supplement of paper PMC11417369.

± gives the standard deviation of the averaged measurements. The list shows a part of the results.

The subject of this experiment is PfAP2-I AP2 domain 3 (GST-tagged). The experiment in a line: gcPBM binding intensity (ln(normalized median fluorescence intensity)); higher = stronger DNA binding. Summed up: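 Alexa488 anti-GST antibody, scanned at 488 nm, detected GST-tagged P. falciparum DNA-binding domains that had been expressed in E. coli and incubated for 1 h on an Agilent 4 × 180k array. The array carried primer-extended double-stranded 36-bp intergenic genomic probes and negative controls. Binding intensity is the highest Masliner-normalised natural-log median intensity across replicate spots of either orientation of each probe.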
In the case of “AATTATATGAAATAAACACACATATGCAATATTGCA [CACACA_site6988]”, the “gcPBM binding intensity (ln)” value stood at 8.28 ± 0.61.

In the case of “TATATATATAAATACAGTACATATATAATATTTTGA [XGTACX_site637]”, the “gcPBM binding intensity (ln)” value was 8.61 ± 0.51.

As to “TAACTTAATTTTAATGCACACAATTTATATATATAT [CACACA_site6022]”, the “gcPBM binding intensity (ln)” value was determined as 11.2 ± 0.52.

Turning to “AAAAATATATATATATATATATATATATTATTTTTT [TGCATGCA_negctrl_site378]”, the “gcPBM binding intensity (ln)” value amounted to 7.92 ± 0.35.

As to “CTTTCCATATATGATAGTACACGATAAAAAAAAAAA [XGTACX_site5772]”, the “gcPBM binding intensity (ln)” value came out at 8.23 ± 0.65.

With “TTTAAAAAAAATTCATATTATATATATATATATTAT [CACACA_negctrl_site1733]”, the “gcPBM binding intensity (ln)” value was 7.54 ± 0.49.

Take “AAAGAAATAAGGTGCACACATATACATATATATATA [CACACA_site429]”: the “gcPBM binding intensity (ln)” value came to 10.3 ± 0.29.

Regarding “TAATAATAGTACTGACATCAAAATCTTATTAAAAAT [GTGCAC_negctrl_site308]”, the “gcPBM binding intensity (ln)” value was determined as 7.58 ± 0.4.

Take “TTCTTTTTTATTTTTCAACACACATAATAAATTTCT [CACACA_site8253]”: the “gcPBM binding intensity (ln)” value is 8.26 ± 0.46.

For the sequence TACCCTTGCATGTAGGTGCAATTTTTTTTTTTTTTT, the “gcPBM binding intensity (ln)” value was found to be 10.6 ± 0.35.

For “TTCGTAATTTATATCACACACATATATATATAATAA [CACACA_site3115]”, the “gcPBM binding intensity (ln)” value is 8.12 ± 0.5.

In the case of “CAACTTTATACATATAGTACAAGTTATATTTTATTA [XGTACX_site6651]”, the “gcPBM binding intensity (ln)” value amounted to 7.46 ± 0.39.

Take “AACGATTTACATCACTGTACTAATGATATACCTCAT [XGTACX_site7463]”: the “gcPBM binding intensity (ln)” value came out at 7.88 ± 0.69.

In the case of “TATATATTTTCTTTTGCACACTGTTTTCCTTTTTTT [CACACA_site2739]”, the “gcPBM binding intensity (ln)” value worked out at 9.51 ± 0.38.

As for “TATATATATATATATTGTACTATATAGTATCTTTTT [XGTACX_site1646]”, the “gcPBM binding intensity (ln)” value is 9.32 ± 0.3.

For “AAGGTATACACTGCTTTATCAAGTTTAACTCTTTTT [XGTACX_negctrl_site118]”, the “gcPBM binding intensity (ln)” value came to 7.77 ± 0.71.

As to “ACATCATAAAATTTATGTACACATTTTTAATTATAC [XGTACX_site7759]”, the “gcPBM binding intensity (ln)” value came out at 8.19 ± 0.19.

On to “ATCATTTTTATGTACACACACATATACGTTGAATAT [CACACA_site1865]”, for which the “gcPBM binding intensity (ln)” value worked out at 8.38 ± 0.18.

On to “AAGATATGAGGGAATACACACATATTTATATTTATA [CACACA_site6846]”, for which the “gcPBM binding intensity (ln)” value came out at 7.42 ± 0.61.

For the sequence “TATAAAATTTACGTGTGTACATATTTAATAATTTTT [XGTACX_site5001]”, the “gcPBM binding intensity (ln)” value was 7.7 ± 0.39.

Regarding “AAATTTGAAATGCATGAACACACACCGCTATAAATG [CACACA_site8230]”, the “gcPBM binding intensity (ln)” value is 8.22 ± 0.69.

Consider “TAAATATAGAAACACACACACATTAATACATATATT [CACACA_site3489]”, for which the “gcPBM binding intensity (ln)” value amounted to 7.74 ± 0.65.

Regarding “TAATTTTTTATATATTGTACAAATAATATATGATGT [XGTACX_site268]”, the “gcPBM binding intensity (ln)” value is 7.92 ± 0.22.

As to “TTTATGTATTTAATATGTACATATAGTTGTTAATAA [XGTACX_site1938]”, the “gcPBM binding intensity (ln)” value amounted to 7.8 ± 0.23.

As for “GCTATATATTAATGTTGTACTTTATGTTCATATTGT [XGTACX_site3619]”, the “gcPBM binding intensity (ln)” value stood at 7.87 ± 0.57.

Take “AAAATGTACGCATATACACACACATAAATAGATACG [CACACA_site9124]”: the “gcPBM binding intensity (ln)” value was 8 ± 0.58.

As to “ATATATATATAATTATATAAAATATATCATATGTTA [XGTACX_negctrl_site47]”, the “gcPBM binding intensity (ln)” value stood at 8.76 ± 0.16.

Regarding “AAGAAATAAATACATACACACATATATAAATAAATA [CACACA_site7559]”, the “gcPBM binding intensity (ln)” value is 7.64 ± 0.56.

Consider “AAGAAATAATTATTATGTACTTAAAAAAATTAAAAT [XGTACX_site7423]”, for which the “gcPBM binding intensity (ln)” value worked out at 7.78 ± 0.45.

As for GCAAGTCCATGAACGGTGCAGGAATTAACAAAAATA, the “gcPBM binding intensity (ln)” value was determined as 9.06 ± 0.49.

In the case of “AATAAAAATAAAAGCACACATAAATATATATATATT [CACACA_site1441]”, the “gcPBM binding intensity (ln)” value stood at 8.575 ± 0.049.

For “TCATGGCCATTTTCAGTGCATATGTGTATTTAATAT [GTGCAC_site9529]”, the “gcPBM binding intensity (ln)” value is 9.1 ± 0.2.

With “AAAAAAATACATACGTGTACCCACATATATGTATCT [XGTACX_site5319]”, the “gcPBM binding intensity (ln)” value was 7.96 ± 0.69.

Consider “GTTTCTACTTATATAACAGGACACGTGTGAATAATT [TGCATGCA_negctrl_site430]”, for which the “gcPBM binding intensity (ln)” value is 8.11 ± 0.71.

For “AAAAAAAAAAAACATTGTACGCACATTTTATATGTC [XGTACX_site6974]”, the “gcPBM binding intensity (ln)” value was 8.39 ± 0.28.

Regarding “TTGAAGGTGGCAATGTGTACATAGAATAACCAGTGC [XGTACX_site4738]”, the “gcPBM binding intensity (ln)” value turned out to be 8.17 ± 0.54.

Regarding “ACAATTGCATCTATCACACATACATACATACATACA [CACACA_site5063]”, the “gcPBM binding intensity (ln)” value amounted to 8.91 ± 0.37.

As for “TTACTATAAAATGTCACACATTCTGTTTCCTTACTT [CACACA_site5714]”, the “gcPBM binding intensity (ln)” value was determined as 7.64 ± 0.61.

For the sequence “TCAACAAAATTGAAGGAACACACATACATATATATA [CACACA_site7940]”, the “gcPBM binding intensity (ln)” value worked out at 8.14 ± 1.

Regarding “TATAAATATCTGTATGCACACATTTTTTTTGGAAAA [CACACA_site4734]”, the “gcPBM binding intensity (ln)” value came out at 8.88 ± 0.23.

On to “ATTTTTTCTCATAAAAACGTGAACGTTTATTTTACA [CACACA_negctrl_site1041]”, for which the “gcPBM binding intensity (ln)” value turned out to be 7.93 ± 0.59.

With “ATTATAAAAGAATTTTTTTTTATTTCATTAAAATAT [CACACA_negctrl_site1137]”, the “gcPBM binding intensity (ln)” value amounted to 7.09 ± 0.47.

Take “AGCACATAAATAATTAAACACACATTGTTCTAGACA [CACACA_site8746]”: the “gcPBM binding intensity (ln)” value is 7.64 ± 0.59.

“TTATAATTTTTCTATTGTACATTTAATAATATATAT [XGTACX_site7326]”: the “gcPBM binding intensity (ln)” value came to 7.8 ± 0.48.

Consider “TTATACATATTTATATGTACGTAATATAATATTAAT [XGTACX_site6520]”, for which the “gcPBM binding intensity (ln)” value was 7.79 ± 0.3.

In the case of “TATTTAATTTATACACGTACATATATAAATAATACA [XGTACX_site1148]”, the “gcPBM binding intensity (ln)” value stood at 7.99 ± 0.18.

With “ATGAAGAAATAAATGTGTACATATCTTAGTATCATA [XGTACX_site8658]”, the “gcPBM binding intensity (ln)” value came to 7.75 ± 0.5.

With “TCATGGGTGTATTTCACACACGGATAATCATTTATA [CACACA_site4663]”, the “gcPBM binding intensity (ln)” value was 7.55 ± 0.45.

For the sequence “TATAATGATGATGATAGTACGTATTAGTATAAAAAA [XGTACX_site9]”, the “gcPBM binding intensity (ln)” value is 8.06 ± 0.61.

In the case of “ATATTTTTTTTTGTTACACACGTTTTTTAAAAAATG [CACACA_site1603]”, the “gcPBM binding intensity (ln)” value came to 8.39 ± 0.69.

In the case of “TCATAAAAATAAAAATGTACACATTAGAAATATTGT [XGTACX_site3671]”, the “gcPBM binding intensity (ln)” value turned out to be 7.83 ± 0.35.

As to “AGAAATAAAAAAAAAAATATATATATTATATATATA [CACACA_negctrl_site1799]”, the “gcPBM binding intensity (ln)” value turned out to be 8.76 ± 0.12.

Consider “AAAATATATTAAGGCACACACATACATATTTATATA [CACACA_site7707]”, for which the “gcPBM binding intensity (ln)” value worked out at 10.1 ± 0.54.

Turning to “AGATCAATAATGACAAGTACACAAAATAACATTTAA [XGTACX_site6968]”, the “gcPBM binding intensity (ln)” value turned out to be 7.69 ± 0.3.

On to “ACAAAAAAAAAAAAAAAAAAAAAAAAAAAATAATAA [CACACA_negctrl_site1640]”, for which the “gcPBM binding intensity (ln)” value was found to be 7.42 ± 0.39.

Take “ATTTTGTAAAAGGTCATACACACATATTCAAAAGAA [CACACA_site2946]”: the “gcPBM binding intensity (ln)” value amounted to 7.68 ± 0.62.
